This is an account of results in the antibiotic and cytotoxicity screens of Wong et al. (2023).

The subject of one assay is HSkMC. The assay is described as follows: cytotoxicity call (relative viability < 0.9). Particulars: 10 µM.
A further assay deals with HepG2. The assay is described as follows: cytotoxicity call (relative viability < 0.9). Particulars: 10 µM.
Another assay concerns S. aureus RN4220. Nature of the assay: growth inhibition call (relative growth <= 0.2). The conditions noted are these: 50 µM.

The list shows a part of the results.

On to `C[C@@H]1CCCCO[C@H](CN(C)C(=O)CCCN(C)C)[C@H](C)CN([C@@H](C)CO)C(=O)c2cc(NC(=O)Nc3ccc(F)cc3)ccc2O1`, for which the cytotoxicity call in the assay on HSkMC and in the assay with HepG2 was “inactive” throughout. Further, in the assay on S. aureus RN4220, the growth inhibition call was “inactive”.
Turning to `O=C(C=Cc1ccccc1)c1ccc(O)cc1O`, the cytotoxicity call in the assay on HSkMC and with HepG2 was “inactive” throughout. The growth inhibition call in the assay with S. aureus RN4220 was “inactive”.
Consider `Cc1noc(C)c1NC(N)=O`, for which the cytotoxicity call in the assay on HSkMC and in the assay on HepG2 was “inactive” each time. Also, in the assay on S. aureus RN4220, the growth inhibition call is “inactive”.
`Cc1ccc(S(=O)(=O)N(C)C[C@H]2Oc3ccc(NC(=O)c4ccncc4)cc3CC(=O)N([C@H](C)CO)C[C@@H]2C)cc1`: the cytotoxicity call in the assay with HSkMC and in the assay with HepG2 was “inactive” in each case. In the assay on S. aureus RN4220, the growth inhibition call is “inactive”.
As for `C[C@@H]1CN([C@@H](C)CO)C(=O)c2cccc(NC(=O)c3nc4ccccc4s3)c2O[C@@H]1CN(C)C(=O)Nc1ccc(F)cc1`, the cytotoxicity call with HSkMC is “inactive”. Moreover, the cytotoxicity call in the assay with HepG2 is “active”. For the same compound, in the assay on S. aureus RN4220, the growth inhibition call is “inactive”.
In the case of `C[C@@H]1CCCCO[C@@H](CN(C)CC2CC2)[C@H](C)CN([C@@H](C)CO)C(=O)c2cc(NC(=O)C3CCCCC3)ccc2O1`, the cytotoxicity call with HSkMC and in the assay on HepG2 was “inactive” each time. Moreover, the growth inhibition call with S. aureus RN4220 is “inactive”.
As for `COc1cccc(S(=O)(=O)N2C[C@@H](O)COC[C@H]3O[C@@H](CC(=O)N4CCOCC4)CC[C@@H]32)c1`, the cytotoxicity call in the assay with HSkMC and in the assay on HepG2 was “inactive” throughout. The growth inhibition call in the assay with S. aureus RN4220 was “inactive”.
Consider `CS(=O)(=O)Nc1ccc2c(c1)[C@H]1C[C@H](CC(=O)NCC3CC3)O[C@H](CO)[C@H]1O2`, for which the cytotoxicity call with HSkMC and with HepG2 was “inactive” each time. Besides, in the assay with S. aureus RN4220, the growth inhibition call is “inactive”.
Take `C[C@@H]1CCCCO[C@H](CN(C)Cc2ccncc2)[C@@H](C)CN([C@H](C)CO)C(=O)c2cc(NC(=O)Nc3ccccc3)ccc2O1`: the cytotoxicity call in the assay with HSkMC and with HepG2 was “inactive” throughout. Further, in the assay with S. aureus RN4220, the growth inhibition call is “inactive”.
With `COCN(C#N)c1nc(N(C)C)nc(N(C)C)n1`, the cytotoxicity call in the assay with HSkMC and with HepG2 was “inactive” in each case. Moreover, the growth inhibition call in the assay on S. aureus RN4220 was “inactive”.
As for `CN1C(=O)c2cc(NC(=O)C3CCOCC3)ccc2OC[C@H]2O[C@@H](CC(=O)NCc3ccccc3F)CC[C@H]21`, the cytotoxicity call in the assay on HSkMC and with HepG2 was “inactive” each time. Further, the growth inhibition call in the assay with S. aureus RN4220 was “inactive”.
Take `C[C@@H]1CCCCO[C@@H](CN(C)C(=O)Nc2ccc3c(c2)OCO3)[C@@H](C)CN([C@H](C)CO)C(=O)c2cc(NS(=O)(=O)c3cccs3)ccc2O1`: the cytotoxicity call with HSkMC and in the assay with HepG2 was “inactive” in each case. Moreover, the growth inhibition call in the assay with S. aureus RN4220 is “inactive”.
`CCCC(=O)Nc1ccc2c(c1)C(=O)N(C)[C@H]1CC[C@H](CC(=O)NCCN3CCCCC3)O[C@H]1CO2`: the cytotoxicity call with HSkMC and with HepG2 was “inactive” in each case. Also, the growth inhibition call in the assay with S. aureus RN4220 is “inactive”.
For `C[C@@H]1CN([C@H](C)CO)C(=O)Cc2cc(NC(=O)CCN3CCOCC3)ccc2O[C@@H]1CN(C)Cc1ccc2c(c1)OCO2`, the cytotoxicity call with HSkMC and with HepG2 was “inactive” throughout. The growth inhibition call in the assay with S. aureus RN4220 was “inactive”.
In the case of `C[C@H]1CN([C@@H](C)CO)C(=O)c2cccc(NS(C)(=O)=O)c2O[C@H]1CN(C)S(C)(=O)=O`, the cytotoxicity call in the assay with HSkMC and in the assay on HepG2 was “inactive” throughout. In addition, the growth inhibition call in the assay on S. aureus RN4220 is “inactive”.
With `C[C@H](CO)N1C[C@H](C)[C@H](CN(C)S(=O)(=O)c2ccc(F)cc2)Oc2ccc(NS(=O)(=O)c3ccccc3)cc2C1=O`, the cytotoxicity call in the assay with HSkMC and in the assay on HepG2 was “inactive” throughout. The growth inhibition call in the assay with S. aureus RN4220 is “inactive”.
For `C[C@H](CO)N1C[C@H](C)[C@H](CN(C)C(=O)Nc2ccccc2)Oc2c(NC(=O)Nc3ccc(C(F)(F)F)cc3)cccc2C1=O`, the cytotoxicity call in the assay with HSkMC and with HepG2 was “inactive” each time. For the same compound, in the assay with S. aureus RN4220, the growth inhibition call is “inactive”.
Regarding `O=C1OCCC/C=C\[C@H]2O[C@@]34C=CCN(Cn5nnc6ccccc65)C(=O)[C@H]3N(CCO)C(=O)[C@@H]4[C@@H]12`, the cytotoxicity call with HSkMC and in the assay with HepG2 was “inactive” in each case. Further, the growth inhibition call in the assay with S. aureus RN4220 was “inactive”.
With `COc1ccc(NC(=O)Nc2ccc3c(c2)C(=O)N([C@@H](C)CO)C[C@H](C)[C@@H](CN(C)Cc2ccc(C(=O)O)cc2)OCCCC[C@@H](C)O3)cc1`, the cytotoxicity call in the assay with HSkMC and in the assay on HepG2 was “inactive” throughout. For the same compound, the growth inhibition call in the assay with S. aureus RN4220 was “inactive”.
Turning to `O=C(CN1CCOCC1)NCC[C@@H]1CC[C@@H](NC(=O)Cc2ccccn2)[C@@H](CO)O1`, the cytotoxicity call in the assay with HSkMC and in the assay with HepG2 was “inactive” in each case. Further, the growth inhibition call in the assay with S. aureus RN4220 was “inactive”.
For the compound `C[C@H](CO)N1C[C@H](C)[C@@H](CN(C)S(=O)(=O)c2ccccc2)Oc2ccc(NC(=O)c3ccncc3)cc2C1=O`, the cytotoxicity call in the assay with HSkMC and in the assay with HepG2 was “inactive” throughout. In addition, the growth inhibition call with S. aureus RN4220 is “inactive”.
`C[C@H](CO)N1C[C@H](C)[C@@H](CN(C)C(=O)Nc2ccc(C(F)(F)F)cc2)Oc2ccc(NC(=O)Nc3ccccc3)cc2CC1=O`: the cytotoxicity call in the assay on HSkMC and in the assay with HepG2 was “inactive” throughout. Moreover, the growth inhibition call in the assay with S. aureus RN4220 is “inactive”.
As to `Cc1noc(C)c1NC(=O)Nc1ccc2c(c1)CC(=O)N([C@H](C)CO)C[C@H](C)[C@@H](CN(C)C(=O)NC(C)C)O2`, the cytotoxicity call in the assay with HSkMC and in the assay on HepG2 was “inactive” in each case. Besides, the growth inhibition call in the assay with S. aureus RN4220 is “inactive”.
For the compound `Cc1noc(C)c1NC(=O)N(C)C[C@H]1Oc2ccc(NC(=O)Cn3cnnn3)cc2CC(=O)N([C@H](C)CO)C[C@@H]1C`, the cytotoxicity call with HSkMC and in the assay on HepG2 was “inactive” throughout. Moreover, the growth inhibition call with S. aureus RN4220 is “inactive”.
`Cn1cnc(-c2cc3nccc(Oc4ccc(NC(=S)NC(=O)Cc5ccccc5)cc4F)c3s2)c1`: the cytotoxicity call in the assay on HSkMC (human skeletal muscle cells) and in the assay on HepG2 was “inactive” each time. In the assay with S. aureus RN4220, the growth inhibition call was “inactive”.
Regarding `C[C@H](CO)N1C[C@H](C)[C@@H](CN(C)S(=O)(=O)c2cn(C)cn2)Oc2c(NC(=O)NC3CCCCC3)cccc2C1=O`, the cytotoxicity call in the assay with HSkMC and in the assay with HepG2 was “inactive” each time. Also, the growth inhibition call with S. aureus RN4220 is “inactive”.
For the compound `CO[C@@H]1CN(C)C(=O)c2cc(NC(=O)C3CCOCC3)ccc2OC[C@@H](C)N(Cc2cccnc2)C[C@@H]1C`, the cytotoxicity call with HSkMC and with HepG2 was “inactive” each time. In addition, the growth inhibition call with S. aureus RN4220 is “inactive”.
For `C[C@H]1CN([C@@H](C)CO)C(=O)CCCn2nncc2CO[C@@H]1CN(C)C(=O)Nc1ccccc1C(F)(F)F`, the cytotoxicity call with HSkMC and in the assay with HepG2 was “inactive” each time. Moreover, the growth inhibition call with S. aureus RN4220 was “inactive”.
